# The RNAGym collection of RNA variant scans (doi:10.7554/elife.90254)
# Read counts are not given, so values of variants with three or more changes are uncertain.
# B1: OR4K15 (parent)
# chain: GUUAACGGUCAUAGGCCAUGGAAACUAGGAGCACCAUUUCGCUGCCAGUGAAGAAAUGAACAAAGAAAAUCUGGGCCAGGCAGGCAUCAAAAGAAAUAGUCUUGCGCUCAACCAGAAAGUCUGUAAUCAUUUUAAGGGUA
# Variants of: B1
# Experiment: self-cleavage, relative activity (ratio to wild type); higher = more cleavage; in vitro, sequencing; the parent is a self-cleaving ribozyme
row,Variant,self-cleavage
1,A13G A126G U132C,0.85
2,A59G A82U A125G,0.05
3,U26C A30G A86G,1.75
4,A36C U72A A118G,0.11
5,A18G A27G U120C U131C,0.56
6,A5G A69U C77U A118G U122A U131C,0.79
7,A30C U72C A82G A86C A90G U100C,0.2
8,A5G A18G A33U A96G U102C,0.37
9,U19C G20U A52G A62U,0.45
10,A11G U37C A69G U130C,0.65
11,U43C C71A U130C,0.16
12,A33U A59G A90G,1.04
13,U9C U19A A52G A90G U102C U133C,1.97
14,U9A A23G A27G U39A A94U,0.94
15,U37G A60U A111U U122A,0.01
16,A66G A78U A89G,0.35
17,G7C A24G A91G A94G A114U U122C,0
18,G20A A47G A51U U87C,0.45
19,A47G A94G A117G,1.25
20,A18C A62G C77U A82G U87C A114G A117G,0.3
21,G7U A27G U72C A91G,0.18

row,Variant,self-cleavage
1,A23C A67G U108C,0.11
2,U2C A11G A13U U100C,1.81
3,A33G A51G A69U,0.96
4,A23G A60G A116G,1.14
5,U26C U108C A117G U127C,0
6,A24C A67U A118G,0.21
7,U38C C40A A90G A92G U120C A126G,0.13
8,A36G A78G A92G,0.23
9,C34A A51G A64G A116G A118U,0.28
10,U2C A47G A51G U103C,0.5
11,A30G U43C A91U U124A,1.03
12,A24G A36C U139C,1.5
13,A30G U37A A51G U130C,1.02
14,A5U A51G C61U A92G U120A,2.44
15,A47U U57G A91C,0.44
16,A5G A36U U39C A66G U100C A111G A125G U127C,0.01
17,U37C U39C U70C,1.31
18,A5G U57C A62U A69G U72C C76U A89U,0.19
19,A54G U70C A95U A118G,0.07
20,A22G U49C A54G A67U U131C A135U,0.61
21,U9A A78G A92G,0.26

row,Variant,self-cleavage
1,A11G A24G U103C,0.31
2,U12C A33C U49C G106U,0.02
3,U2C U108A A111G,0.01
4,U2C A18U U38C U72A,0.77
5,A5G U72A A82G,0.11
6,A24C A36U A86G,0.91
7,U43C A55G U127C,0.76
8,A5G U12A A60G,1.25
9,A86G U130C U139C,1.11
10,A33G A51G U100G,1.99
11,U9C A11G U19C A36G A52G U102C U108C U120C,0.02
12,U9C U37C A82G A91C U131A,0.58
13,A5U A18G A30G U37C G106C U108C A118G U122A,0.02
14,G31A A68G A117U U130C,0.58
15,A13U A18G A110G,0.25
16,A11G U43A A90G U122C,0.54
17,A59U A82G U120C,0.31
18,A23G A56G A62G A135G,0.63
19,A24G G48A A66U A91G,0.35
20,A30G U72A A89U U100C A111G G123A U130C U139C,0
21,G7A A22G A69G U139C,1.31

row,Variant,self-cleavage
1,A56G A94G A96G U103C A129C,0.47
2,C16U A66U U102A U122C,0.32
3,U26C A118U U132A,0.13
4,U12A U39A A47U G80A U100C U127A,0.54
5,A67G A91G U97A,0.73
6,U37C A52G A114G U127C,0.27
7,A13G A33G A52C A56U A78U U87C,0.27
8,A51G U100C U127C,1.89
9,A22G C77A A92G A134G,0.44
10,U39C A60G A118U,0.52
11,A94G A98G U108C A111C A118G,0
12,U43A A56G A67U,1.45
13,U26A U38A A114U U132C,0.01
14,U9A U37C A56G A114G,0.47
15,A30G U43C A98G,0.56
16,A89U C113A A116G,0.06
17,U2C C42G A60G U87C,1
18,A30G U87C A92G A116U,0.27
19,A47G A59G U133C,0.77
20,U2C A86G U120C,0.41
